# Results reported in PubChem BioAssay AID1347417 (National Center for Advancing Translational Sciences (NCATS), 2020).
# In all, about 120,000 compounds went through this assay and about 5,300 (4.4%) were called active. The shares of active, inactive and inconclusive entries below differ from those in the screen. The call rests on the fitted dose curve; in most records, active means well fitted inhibition curve with a large enough effect; inconclusive means small, poorly fitted or top-dose-only effect; inactive means no such curve, though single readings can be large or run the other way. Potencies beside an inconclusive call are fits to weak or partial responses and may not hold up.
# Assay: qHTS Primary assay for Inhibitors of Plasmodium falciparum Dd2 growth in vitro; further: nearly all actives have a fitted effect of over 65% in size;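 on activity, negative = inhibition: plate controls were DMSO vehicle for no effect and reference drug for full effect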
# Details: P. falciparum Dd2 growth, SYBR Green, 72 h; activity, negative = inhibition: at 28.9 µM (top of the series) unless noted; series mostly up to 28.9 µM
# Method in brief: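 Infected erythrocytes (Dd2, 0.3% parasitemia, 2.5% hematocrit final) are added to compound in RPMI-1640/Albumax II medium, grown 72 h at 37C in low oxygen, then lysed with saponin/Triton-X containing SYBR Green and read by fluorescence.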
# Potency means the concentration at half of the fitted maximal effect; tags describe the fitted curve by direction and shape.
SMILES,Potency,"activity, negative = inhibition",outcome
O=C(c1ccc2c(=O)n(CCc3ccccc3)c(=O)[nH]c2c1)N1CCN(c2ccc(F)cc2)CC1,"inconclusive: 11.2 µM [inhibitor, partial curve, poor fit]",–,–
COc1ccc(Cn2c(=O)c3oc4ccccc4c3n(Cc3cccc(C(F)(F)F)c3)c2=O)cc1,"inconclusive: 10 µM [inhibitor, single point]",–,–
CCCCc1nn(CC(=O)N2CCC(n3nc(C)cc3C)C2)c(=O)n1CC (stereo not given),–,inactive: 0.0628%,–
CC(C)Oc1cc(-c2ccc(C(C)N3CCOCC3)cc2)nc(N)n1 (stereo not given),–,inactive: -4.64%,–
O=C([C@H]1C[C@H](Oc2cccnc2)CN1S(=O)(=O)c1ccccc1)N1CCOCC1,–,inactive: -2.99%,–
CCc1nn(CC(=O)NCCCN(CC(C)C)CC(C)C)c(=O)c2cc3sc(C)cc3n12,"inconclusive: 17.8 µM [inhibitor, single point]",–,–
COc1ncccc1-c1n[nH]c2c1CC(=O)N(Cc1ccccc1)C2,"inconclusive: 2.82 µM [inhibitor, partial curve, poor fit]",–,–
O=C(NC1CC1)c1ccc2ccnn2c1,–,inactive: 0.915% [at 44.1 µM],–
Cc1nonc1OCCNC(=O)C1CCC(=O)N(CCN2CCOCC2)C1 (stereo not given),–,inactive: 16.9%,–
COc1cccc(C(=O)Nc2ccc(-c3cc(C(F)(F)F)nn3-c3ccccc3)cc2)c1,"inconclusive: 20 µM [inhibitor, single point]",–,–
COc1ccc(-c2ccc3c(c2)C(=O)N2CC[C@H](NC(=O)c4cccs4)[C@H]2C(=O)N3)c(OC)c1,"inconclusive: 6.31 µM [inhibitor, partial curve, poor fit]",–,–
Cc1ccc(C)c(CN2C(=O)N(c3cc(Cl)ccc3C)S(=O)(=O)c3ccccc32)c1,"inconclusive: 10 µM [inhibitor, single point]",–,–
Cc1ccc(C)c(Cn2c(-c3cccs3)nc3ccccc32)c1,"inconclusive: 11.2 µM [inhibitor, single point]",–,–
CC(C)Cc1ccc(S(=O)(=O)Nc2cc3c(cc2N2CCOCC2)n(C)c(=O)c(=O)n3C)cc1,"inconclusive: 11.2 µM [inhibitor, single point]",–,–
CC(C)c1ccc(S(=O)(=O)c2nnn3c2nc(N2CCCCC2)c2sccc23)cc1,"inconclusive: 10 µM [inhibitor, single point]",–,–
Cc1sc2ccn(C)c(=O)c2c1C(=O)NCc1ccc(OC(C)C)cc1,"inconclusive: 17.8 µM [inhibitor, single point]",–,–
C[C@@H]1CN(CC(=O)NCCc2ccc(F)cc2)CC[C@@]1(O)C1CC1,"inconclusive: 3.98 µM [inhibitor, partial curve, poor fit]",–,–
Cc1c(Cl)cccc1NC(=O)Nc1cccc(-c2nnc3n2CCCC3)c1,"inconclusive: 4.47 µM [inhibitor, partial curve, poor fit]",–,–
CCOc1ccc(C(=O)N2CCC[C@H]2c2nc(-c3ccccc3)no2)cc1,–,inactive: -2.72%,–
CCN1CCCN(S(=O)(=O)c2cc(OC)ccc2OC)CC12CCOCC2,–,–,inactive
CC(C)c1nc2c(c(-c3ccc(Cl)cc3)n1)CCN(Cc1ccc(C(F)(F)F)cc1)CC2,"inconclusive: 10 µM [inhibitor, single point]",–,–
O=C(Cc1cccc(F)c1)Nc1cnc(-c2cccnc2)nc1,"inconclusive: 3.98 µM [inhibitor, single point]",–,–
Cc1cccc(N2CCN(C(=O)c3cn(CC(C)C)c(=O)c4c3c3ccccc3n4C)CC2)c1C,active: 11.2 µM,–,–
Cc1ccc(Cl)cc1NC(=O)Cn1cccc1-c1nc(-c2ccccc2)no1,"inconclusive: 3.98 µM [inhibitor, single point]",–,–

SMILES,Potency,"activity, negative = inhibition",outcome
COCC(=O)NC[C@H]1C[C@@H]2CCN1C[C@@H]2c1cc(-c2ccccc2Br)nc(C)n1,"inconclusive: 10 µM [inhibitor, single point]",–,–
CCCCN(C)CCCNC(=O)c1cc(-c2ccc(Br)s2)nc2ccccc12,active: 11.2 µM,–,–
COc1ccccc1CC(=O)N1CCCc2ncc(C(=O)Nc3cccc(Cl)c3)cc21,active: 2.51 µM,–,–
CCOC(=O)C1CCCN(C(=O)c2cc3c(=O)[nH]c4ccc(C)cc4c3s2)C1 (stereo not given),–,–,inactive
CN(Cc1ccccc1)S(=O)(=O)c1cc(Br)cc2c1N(C(=O)C1CC1)CC2,"inconclusive: 20 µM [inhibitor, single point]",–,–
CCN(CCCNC(=O)CN1N=C(c2ccc(OC)cc2)CCC1=O)c1cccc(C)c1,"inconclusive: 17.8 µM [inhibitor, single point]",–,–
COCCOC1CCOC2(CCN(C(=O)Cc3c(C)noc3C)CC2)C1 (stereo not given),–,inactive: 15.4%,–
O=[S+]([O-])(c1ccccc1)N1Cc2ccccc2CC2(CCCN2Cc2ccncc2)C1 (stereo not given),"inconclusive: 11.2 µM [inhibitor, single point]",–,–
Cc1ccc(CNC(=O)N2CCCCCCNC(=O)CC2)cc1,–,inactive: 9.27%,–
COc1ccc(CN2CCC3(C2)NC(=O)c2ccccc2CO3)cc1 (stereo not given),–,inactive: -16.5%,–
Cc1cc(C(=O)N2CCC(OCCOc3ccc(F)cc3)CC2)nn1C,"inconclusive: 5.01 µM [inhibitor, partial curve, poor fit]",–,–
Cc1cc2c(cc1S(=O)(=O)N1CCCCC1)OCC(=O)N2,"inconclusive: 12.6 µM [inhibitor, partial curve, poor fit]",–,–
Cc1ccccc1C(=O)N1CCC(CCC(=O)NCCc2c[nH]c3ccccc23)CC1,"inconclusive: 20 µM [inhibitor, single point]",–,–
O=C(NCCc1ccccc1)[C@@H]1COCC(=O)N1Cc1ccc(F)cc1,–,inactive: 12.3%,–
CN(C)[C@@H]1CN(C(=O)c2ccc(F)cc2Cl)C[C@H]1CO,–,inactive: 1.57%,–
CC(=O)N1CCc2c(sc3c2c(=O)n(CCc2ccccc2)c(=O)n3Cc2ccc(Cl)cc2)C1,"inconclusive: 17.8 µM [inhibitor, single point]",–,–
Cc1ccc(C)c(Cn2cc(S(=O)(=O)c3ccc(Cl)cc3)c(=O)c3cc(F)ccc32)c1,–,–,inactive
Cc1cc(C)n(CCC(=O)N2CC(Oc3cccc(-c4nc(-c5ccccc5)no4)c3)C2)n1,–,inactive: -7.51% [at 5.79 µM],–
O=C1CC(c2ccccc2)N(C(=O)Cc2cccc(F)c2)CCCCCCN1 (stereo not given),"inconclusive: 20 µM [inhibitor, single point]",–,–
Cc1ccc2nc3n(c2c1)[C@@H](CNS(=O)(=O)Cc1ccccc1)COC3,"inconclusive: 22.4 µM [inhibitor, single point]",–,–
Cc1cc(C)cc(S(=O)(=O)c2cn(C)c3cc(N4CCCC4)c(F)cc3c2=O)c1,–,–,inactive
CN(Cc1cnn(C)c1)C(=O)C1C2C(=O)N(Cc3ccc(F)cc3)C[C@@]23C=C[C@@H]1O3 (stereo not given in full),–,inactive: -3%,–
CCc1ccc(NC(=O)CSC2=Nc3ccccc3C3=NC(CCC(=O)NCc4ccco4)C(=O)N23)cc1 (stereo not given),"inconclusive: 11.2 µM [inhibitor, partial curve]",–,–
COc1ccc(S(=O)(=O)N2CCc3c(C(=O)N4CCCC4)cccc32)cc1,"inconclusive: 11.2 µM [inhibitor, single point]",–,–

SMILES,Potency,"activity, negative = inhibition",outcome
CC(C)(C)c1ccc(S(=O)(=O)N2CCN(Cc3noc(CCC(=O)N4CCCCC4)n3)CC2)cc1,"inconclusive: 14.1 µM [inhibitor, partial curve, poor fit]",–,–
CCn1nc(C)c(CCN(C)C(=O)Cn2nc3n(c2=O)CCC(N)CC3)c1C (stereo not given),–,–,inactive
CCC(C)(C)c1ccc2c(C(=O)N3C[C@H](N)C[C@H]3C(=O)NC)csc2c1,"inconclusive: 12.6 µM [inhibitor, single point]",–,–
COc1ccccc1CN1Cc2[nH]cnc2C[C@H]1c1nc(-c2cccc(C)c2)no1,active: 12.6 µM,–,–
COc1ccc(Cl)cc1S(=O)(=O)NC1CCc2n[nH]c(=O)n2CC1 (stereo not given),–,inactive: 4.81%,–
O=C(NC1CC1)[C@@H]1CN(CCCc2ccccc2)C[C@H]1CO,"inconclusive: 0.631 µM [inhibitor, full curve, poor fit]",–,–
CCN(CC)c1cc2c(cc1F)c(=O)c(S(=O)(=O)c1ccc(OC)cc1)cn2CC,"inconclusive: 11.2 µM [inhibitor, partial curve]",–,–
O=C(NCc1ccco1)C1c2ccccc2C(=O)N(C2CCCC2)C12CCCCC2 (stereo not given),"inconclusive: 17.8 µM [inhibitor, single point]",–,–
O=C1CCN(S(=O)(=O)c2ccccc2)CCCC(C(=O)NCCc2cccnc2)CCN1 (stereo not given),"inconclusive: 1.26 µM [inhibitor, full curve]",–,–
CN(Cc1ccc(-c2ccccc2)cc1)Cc1cccc(OC(F)(F)F)c1,–,inactive: 9.95%,–
Cc1nc(NC2CC(c3nnc(CO)n3C3CC3)C2)c2sccc2n1 (stereo not given),"inconclusive: 20 µM [inhibitor, single point]",–,–
Cn1nc(C(=O)N2CCOCCNC(=O)CC2)c2ccccc21,–,inactive: -1.17%,–
COCc1nc(CCNS(=O)(=O)c2cccc(OC)c2)no1,–,inactive: 42.4%,–
Cc1ccccc1-n1c(SCc2ccc(Cl)cc2)nc2[nH]ncc2c1=O,active: 10 µM,–,–
CC(C)NC(=O)NC1CCCc2c1cnn2-c1ccc(F)cc1F (stereo not given),–,inactive: 4.41%,–
CN(C)CCNC(=O)c1ccc2c(=O)n3c(nc2c1)CCCCC3,–,inactive: -19.6%,–
COc1ccc(-c2nc(C(C)C)nc3c2CCN(C(=O)Cc2ccccn2)CC3)cc1,–,inactive: -16.1%,–
Cc1ccccc1C(=O)N(C)Cc1ccc(F)cc1,–,–,inactive [at 44.1 µM]
COc1ccc(NC(=O)c2ccc3c(c2)OCCN(CCC(F)(F)F)C3)cc1F,"inconclusive: 2.51 µM [inhibitor, partial curve, poor fit]",–,–
Cc1cc(C)cc(NC(=O)N2CCCC2c2nncn2C2CCCC2)c1 (stereo not given),–,inactive: -7.87%,–
COc1cccc(CN2Cc3nc(-c4cc(Cl)ccc4OC)ccc3OCC2=O)c1,–,inactive: -20% [at 44.1 µM],–
COc1ccc(-c2nc(CN3CCC(C(=O)NCc4ccccc4)CC3)c(C)o2)cc1OC,–,inactive: -4.44%,–
